# From PubChem BioAssay AID1460 (National Center for Advancing Translational Sciences (NCATS), 2008)
# Among all 270,000 compounds or so, about 5,800 (2.1%) were called active. The shares of active, inactive and inconclusive entries below differ from those in the screen. The call rests on the fitted dose curve; in most records, active means well fitted inhibition curve with a large enough effect; inconclusive means small, poorly fitted or top-dose-only effect; inactive means flat fitted curve, though single readings scatter. Potencies of inconclusive entries are doubtful fits and often do not repeat.
# Biological target: Microtubule-associated protein tau (Homo sapiens) (UniProt P10636)
# UniProt P10636, sequence (P10636 whole entry, looked up): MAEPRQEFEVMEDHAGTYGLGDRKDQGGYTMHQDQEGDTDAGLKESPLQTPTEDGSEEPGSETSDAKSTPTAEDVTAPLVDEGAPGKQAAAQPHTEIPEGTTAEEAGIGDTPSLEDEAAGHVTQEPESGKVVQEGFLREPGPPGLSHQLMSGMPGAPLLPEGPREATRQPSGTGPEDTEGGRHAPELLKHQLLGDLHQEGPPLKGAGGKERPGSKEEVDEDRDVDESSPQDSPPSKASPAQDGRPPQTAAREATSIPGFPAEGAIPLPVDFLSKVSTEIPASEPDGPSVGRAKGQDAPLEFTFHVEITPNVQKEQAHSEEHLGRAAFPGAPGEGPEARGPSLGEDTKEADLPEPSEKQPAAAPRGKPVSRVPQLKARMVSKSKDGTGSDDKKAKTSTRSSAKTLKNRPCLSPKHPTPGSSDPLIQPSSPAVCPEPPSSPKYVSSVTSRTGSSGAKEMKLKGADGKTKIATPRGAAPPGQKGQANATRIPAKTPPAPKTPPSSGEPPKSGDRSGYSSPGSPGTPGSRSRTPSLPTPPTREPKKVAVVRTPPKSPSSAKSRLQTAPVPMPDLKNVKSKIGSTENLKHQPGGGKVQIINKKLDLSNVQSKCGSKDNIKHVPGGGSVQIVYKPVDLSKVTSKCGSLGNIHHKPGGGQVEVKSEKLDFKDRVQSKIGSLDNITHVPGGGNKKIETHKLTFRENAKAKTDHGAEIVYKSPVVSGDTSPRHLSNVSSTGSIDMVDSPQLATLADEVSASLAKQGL
# Assay: qHTS for Inhibitors of Tau Fibril Formation, Thioflavin T Binding; further: nearly all actives have a fitted effect of over 55% in size
# Conditions: recombinant tau K18 P301L (four-repeat tau fragment), heparin-induced fibrillization, ThT fluorescence; series mostly up to 57.4 µM; activity, negative = inhibition: at the top concentration
# Method in brief: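 K18 P301L tau (15 uM + 0.24 uM Alexa 594-tagged), heparin 20 uM, NaOAc pH 7, 6 h 37 C; ThT 30 uM, 1 h RT, ex 450/em 510 nm.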
# On the % scale 0 is the no-effect control and ±100 the full control effect; potency means the concentration at half of the fitted maximal effect; tags describe the fitted curve by direction and shape.
Structure (SMILES),Potency,"activity, negative = inhibition"
Cc1ccc(NC(=O)c2ccccc2)s1,"inconclusive: 15.8 µM [inhibitor, partial curve, poor fit]",
Cc1nc2sccn2c(=O)c1S(=O)(=O)Nc1cc(Cl)ccc1O,"inconclusive: 12.6 µM [inhibitor, single point]",
COc1ccccc1N1CCN(C(=O)CSc2nnc(-c3ccoc3C)o2)CC1,"inconclusive: 28.2 µM [inhibitor, single point]",
O=C(O)c1ccc(NC2=C(n3nnc4ccccc43)C(=O)c3ccccc3C2=O)cc1,"inconclusive: 17.8 µM [inhibitor, partial curve, poor fit]",
COc1c2ccc(C(=O)NCCCCc3ccccc3)cc2nn1C,"inconclusive: 39.8 µM [inhibitor, single point]",
CN(C)c1ccc(/C=N/N2CCN(c3ccccn3)CC2)cc1,active: 1.78 µM,
CCOC(=O)CSc1nnc(CSc2nc(N)c3c(C)c(C)sc3n2)n1-c1ccccc1,,inactive: -14%
Cc1ccc(Cn2c(=O)c3ccccc3n3c(-c4cccc(O)c4)nnc23)cc1,,inactive: -4.49%
COc1ccc(NC(=O)N(CCO)Cc2cc3c(C)cc(C)cc3[nH]c2=O)cc1,"inconclusive: 31.6 µM [inhibitor, single point]",
Cc1ccc(N=Cc2ccc[nH]2)c(O)c1,active: 15.8 µM,
COc1cc(C2c3sc(=O)[nH]c3SC3C(=O)N(c4ccc(Br)cc4)C(=O)C32)ccc1O (centres undefined),"inconclusive: 20 µM [inhibitor, partial curve]",
FC(F)(F)c1cc(-c2ccco2)nc(NCc2cccs2)n1,"inconclusive: 35.5 µM [inhibitor, partial curve]",
CC(C)OCCCn1c(SCC(=O)c2ccccc2)nc2c(sc3ccccc32)c1=O,,inactive: -3.27%
O=C(COC(=O)Cc1ccc(-c2ccccc2)cc1)NCc1ccccc1,,inactive: -6.9%
O=C(Cn1c(C(F)(F)F)nc2ccccc21)OCC(=O)c1c[nH]c2ccccc12,"inconclusive: 35.5 µM [inhibitor, single point]",
CN(C)c1ccc(CNc2ccc3c(c2)ncn3C)cc1,"inconclusive: 12.6 µM [inhibitor, partial curve]",
CCOC(=O)c1cccc(NC(=O)c2cc3ccccn3n2)c1,"inconclusive: 39.8 µM [inhibitor, single point]",

Structure (SMILES),Potency,"activity, negative = inhibition"
CCCCOc1ccc(C2=NC(c3ccncc3)=Nc3ccc(OCC)cc3N2)cc1,"inconclusive: 25.1 µM [inhibitor, single point]",
CCOc1ccccc1CNC(=O)C1CCN(c2nnc(-n3c(C)ccc3C)s2)CC1,"inconclusive: 20 µM [inhibitor, single point]",
CN(C)c1ccc(NC(=S)NC(=O)/C=C/c2ccco2)cc1,"inconclusive: 0.562 µM [inhibitor, full curve, poor fit]",
O=[N+]([O-])c1c(NCc2ccco2)ccc2nonc12,,inactive: -13.2%
COc1ccc(NC(=O)C(Cc2ccccc2)NS(=O)(=O)c2ccc3c(c2)CCC(=O)N3)c(OC)c1 (centres undefined),,inactive: -0.404%
COc1ccc(-c2nnc(N)s2)cc1,"inconclusive: 20 µM [inhibitor, single point]",
CCc1ccc(CNC(=O)Cn2nc(C)n3c(cc4cc(C)ccc43)c2=O)cc1,,inactive: 1.43%
O=C(c1ccc(F)cc1)C(CCCCCC(CN1CCOCC1)C(=O)c1ccc(F)cc1)CN1CCOCC1 (centres undefined),"inconclusive: 17.8 µM [inhibitor, single point]",
CCc1ccc(NC(=O)CN2C(=O)C(c3ccc(C)cc3)=NC23CCCCC3)cc1,,inactive: -0.339%
Cc1ccc2[nH]c(=O)c(C(c3nnnn3CC3CCCO3)N3CCCc4ccccc43)cc2c1 (centres undefined),"inconclusive: 39.8 µM [inhibitor, single point]",
O=C(C(Sc1ccccc1)c1ccccc1)N1CCN(c2ccccc2F)CC1 (centres undefined),,inactive: -28%
O=C(NC(Cc1c[nH]c2ccccc12)C(=O)O)/C(=C/c1ccco1)NC(=O)c1ccccc1 (centres undefined),"inconclusive: 39.8 µM [inhibitor, single point]",
Cc1cc(O)c(-c2cc(C(=O)Nc3sc4c(c3C(=O)NCc3ccco3)CCC4)[nH]n2)cc1C,"inconclusive: 17.8 µM [inhibitor, partial curve]",
NC(=O)CC(NC(=O)Cc1cccc2ccccc12)c1ccc(NCc2ccccn2)c([N+](=O)[O-])c1 (centres undefined),"inconclusive: 31.6 µM [inhibitor, partial curve]",
Cc1ccccc1N/N=C1\CCCNC1=O,"inconclusive: 35.5 µM [inhibitor, single point]",
CN(C)c1ccc(/C=N/NC(=O)C(=O)/C=C2\NC3(CCCC3)Cc3ccccc32)cc1,active: 2.24 µM,
Fc1ccc2nc(Nc3nc4cc5c(cc4s3)OCO5)sc2c1,"inconclusive: 2 µM [inhibitor, full curve]",
